# Inconclusive means that the source gave no clear call. Such entries were picked first, then a sample of the others. For part of these data: Potencies beside an inconclusive call are fits to weak or partial responses and may not hold up. Calls of active or inactive are those of the source. Unless noted, calls come from the whole dose curve; as a rule, active = well fitted curve in either direction with a large enough effect (not every such curve was filed as active); inconclusive = small, poorly fitted or top-dose-only effect, or another doubt; inactive = flat fitted curve, though single readings scatter.
# Legend:
# [1] = AP1 Signaling Pathway (AID 357); conditions: ME-180 (cervical carcinoma) AP-1-bla reporter, EGF-induced, beta-lactamase ratio, 5 h; at 17.2 µM (top of the series) unless noted;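 note: ME-180 reporter cells stimulated with EGF at its EC50 level; top concentration of the series differs between compounds; % is set by controls: 0 for no effect and ±100 for the full control effect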
# Procedure, shortened: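 Titration-series screen for positive or negative modulators of EC50 EGF-induced signaling in ME-180 cells carrying an AP-1-driven beta-lactamase reporter. After 5 hours at 37 degrees Celsius, CCF4 460nm/530nm emission ratio gave %Activity; AC50 values derived.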
# [2] = biological target: Cytochrome P450 1A2 (Homo sapiens) (UniProt P05177); test: p450-cyp1a2 (AID 410; calls by dose curve; note: potency is the fitted concentration of half-maximal effect;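 for activity change, negative = inhibition: top concentration of the series differs between compounds; -100% = full effect of reference inhibitor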)
# Sequence of UniProt P05177 (P05177 whole entry, looked up): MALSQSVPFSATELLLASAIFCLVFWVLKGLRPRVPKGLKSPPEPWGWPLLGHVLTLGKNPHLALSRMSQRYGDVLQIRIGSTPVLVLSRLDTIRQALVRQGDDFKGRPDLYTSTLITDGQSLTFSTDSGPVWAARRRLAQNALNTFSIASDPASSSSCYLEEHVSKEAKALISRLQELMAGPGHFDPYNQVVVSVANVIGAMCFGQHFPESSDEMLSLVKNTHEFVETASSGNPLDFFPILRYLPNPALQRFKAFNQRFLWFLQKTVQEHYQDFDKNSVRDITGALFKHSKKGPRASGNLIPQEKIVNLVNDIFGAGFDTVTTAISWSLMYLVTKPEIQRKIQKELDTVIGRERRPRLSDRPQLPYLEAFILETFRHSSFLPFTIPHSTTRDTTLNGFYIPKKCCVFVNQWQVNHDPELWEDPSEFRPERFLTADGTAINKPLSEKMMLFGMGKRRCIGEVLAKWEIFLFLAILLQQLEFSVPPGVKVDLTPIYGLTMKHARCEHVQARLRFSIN
# Procedure, shortened: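 Luminescent demethylation readout: Luciferin-ME (100uM, equal to Km) turned over by 20nM CYP1A2 for 60 min at room temperature after NADPH regeneration addition, following 10 min compound preincubation. Normalization used 57 uM furafylline as full inhibition.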
# [3] = NFAT Signaling Pathway (AID 444); conditions: Jurkat NFAT-bla M1, carbachol, beta-lactamase ratio, 5 h; at 17.2 µM (top of the series) unless noted;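 note: carbachol stimulus at about its EC50 of 1 µM final; % is set by controls: 0 for no effect and ±100 for the full control effect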
# Procedure, shortened: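 Read-out: CCF4 FRET ratio (460 nm/530 nm) after 1 h RT dye loading, used for %activity and AC50 from titration series. Cells: Jurkat NFAT-β-lactamase/M1 line, treated with compound plus 1 uM carbachol for 5 h, 37 °C.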
# [4] = biological target: 3',5'-cyclic-AMP phosphodiesterase 4B (Homo sapiens) (UniProt Q07343); test: qHTS Assay for Inhibitors of PDE-IV (AID 607; active = well fitted activation curve with a large enough effect in the main read-out, with a control signal flat, not every such curve was filed as active; inconclusive = small, poorly fitted or top-dose-only effect, or effect the other way, or a change in a side signal; note: potency is the fitted concentration of half-maximal effect); conditions: HEK293 ACTOne CNG channel cells, membrane potential fluorescence; activation (PDE inhibition): at 22.9 µM (top of the series)
# Sequence of UniProt Q07343 (Q07343 whole entry, looked up): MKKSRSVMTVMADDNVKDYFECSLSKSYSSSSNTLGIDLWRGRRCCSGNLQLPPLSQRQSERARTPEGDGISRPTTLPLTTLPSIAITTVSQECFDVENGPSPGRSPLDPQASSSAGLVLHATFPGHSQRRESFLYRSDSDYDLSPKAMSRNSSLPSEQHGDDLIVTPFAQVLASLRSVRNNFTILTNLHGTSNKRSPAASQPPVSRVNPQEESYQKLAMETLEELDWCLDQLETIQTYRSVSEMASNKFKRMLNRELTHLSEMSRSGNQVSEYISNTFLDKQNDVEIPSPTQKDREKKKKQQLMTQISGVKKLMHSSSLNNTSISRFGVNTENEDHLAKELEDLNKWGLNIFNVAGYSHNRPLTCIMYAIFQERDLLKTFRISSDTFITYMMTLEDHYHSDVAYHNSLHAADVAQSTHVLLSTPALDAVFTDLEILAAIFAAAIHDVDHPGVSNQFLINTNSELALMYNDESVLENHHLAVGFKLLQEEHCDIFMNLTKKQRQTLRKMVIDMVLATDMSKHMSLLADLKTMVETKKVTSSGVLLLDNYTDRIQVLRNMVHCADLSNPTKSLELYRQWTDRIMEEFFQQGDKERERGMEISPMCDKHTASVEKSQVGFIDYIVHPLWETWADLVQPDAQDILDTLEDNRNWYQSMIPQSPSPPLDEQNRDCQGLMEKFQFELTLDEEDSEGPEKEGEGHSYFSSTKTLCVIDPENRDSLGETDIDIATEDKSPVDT
# Procedure, shortened: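 Live HEK293 cells with a modified cyclic nucleotide-gated (CNG) channel report intracellular cAMP via membrane-potential dye fluorescence (ex 535/em 590 nm). Endogenous PDE-IV was targeted. Compounds were tested at up to 22.9 uM final; RO 20-1724 100 uM served as control.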
# [5] = biological target: Cytochrome P450 3A4 (Homo sapiens) (UniProt P08684); test: qHTS Assay for Inhibitors and Substrates of Cytochrome P450 3A4 (AID 884; active = well fitted inhibition curve with a large enough effect; inconclusive = small, poorly fitted or top-dose-only effect; inactive = no such curve, though single readings can be large or run the other way; note: potency is the fitted concentration of half-maximal effect; nearly all actives have a fitted effect of over 50% in size)
# Sequence of UniProt P08684 (P08684 whole entry, looked up): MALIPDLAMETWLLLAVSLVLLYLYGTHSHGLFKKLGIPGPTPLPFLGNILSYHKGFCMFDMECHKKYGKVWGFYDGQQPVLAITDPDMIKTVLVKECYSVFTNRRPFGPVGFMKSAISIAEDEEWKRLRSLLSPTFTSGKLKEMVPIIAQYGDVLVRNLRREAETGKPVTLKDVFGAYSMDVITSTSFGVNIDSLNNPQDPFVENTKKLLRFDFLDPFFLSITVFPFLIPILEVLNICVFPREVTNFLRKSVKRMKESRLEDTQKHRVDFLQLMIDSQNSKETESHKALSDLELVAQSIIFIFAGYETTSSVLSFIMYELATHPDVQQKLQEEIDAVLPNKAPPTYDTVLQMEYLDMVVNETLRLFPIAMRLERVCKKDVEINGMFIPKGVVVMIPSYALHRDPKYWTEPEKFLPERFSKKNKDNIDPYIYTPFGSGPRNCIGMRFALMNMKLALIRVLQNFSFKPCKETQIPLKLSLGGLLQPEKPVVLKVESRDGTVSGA
# Procedure, shortened: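 Luminescent readout of luciferin produced by CYP3A4 (20 nM) dealkylation of Luciferin-PPXE, 25 uM (its KM). NADPH-driven reaction ran 60 min at RT after 10 min compound preincubation; data scaled to 57 uM ketoconazole as 100% inhibition.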
# Tags give direction and shape of the fitted curve.
smiles,measurement,setting,value
C[C@H]1CC(C)(C)C[C@@](OCCN2CCCCC2)(c2ccccc2)C1,"activity change, negative = inhibition",[1],inconclusive: 30.7% [activator] [at 7.69 µM]
same,"activity change, negative = inhibition",[2],inactive: 0.2% [at 11.4 µM]
same,"activity change, negative = inhibition",[3],inconclusive: -88.4% [inhibitor] [at 7.69 µM]
same,Potency,[4],"inconclusive: 1.58 µM [rising, single point]"
same,Potency,[5],"inconclusive: 3.16 µM [inhibitor, partial curve]"
CN(Cc1ccccc1)Cn1ccnc1,"activity change, negative = inhibition",[1],inconclusive: 7.24% [activator] [at 7.69 µM]
same,Potency,[2],inconclusive: 7.94 µM [decreasing]
same,Potency,[5],"inconclusive: 3.98 µM [inhibitor, partial curve]"
CC(C)(C)n1cnc2cc(NS(=O)(=O)c3ccc(Br)cc3)ccc21,"activity change, negative = inhibition",[1],inconclusive: -58.7% [inhibitor]
same,"activity change, negative = inhibition",[3],inactive: -27.1%
CN1CCC2(CC1)CCN(C(=O)c1cccc(F)c1)CC2,"activity change, negative = inhibition",[1],inactive: 2.25% [at 7.69 µM]
same,"activity change, negative = inhibition",[3],inconclusive: -58.6% [inhibitor] [at 7.69 µM]
Cn1c(NCC(O)c2ccccc2)nc2c1c(=O)n(Cc1ccc(Cl)cc1)c(=O)n2C (stereo not drawn),"activity change, negative = inhibition",[1],inconclusive: -44.2% [inhibitor]
same,"activity change, negative = inhibition",[3],inconclusive: 47.4% [activator]
COCCCNc1nc(-c2ccncc2)nc2ccccc12,"activity change, negative = inhibition",[1],inactive: -12.4%
same,"activity change, negative = inhibition",[3],inconclusive: 32.9% [activator]
Cc1cc(/C=c2/sc3nc4ccccc4n3c2=O)c(C)n1-c1ccccn1,"activity change, negative = inhibition",[1],inconclusive: -45.3% [inhibitor]
same,"activity change, negative = inhibition",[3],inconclusive: -75% [inhibitor]

# From PubChem BioAssay (NCATS)
